This note sets out measurements from US20250002564A1 (HOSPITAL FOR SICK CHILDREN, published 2025).

What all share (test): cell-based or functional assay
For assay [1], the target named is T1, SARS-CoV-2 Spike on wild-type pseudotyped virus (PsV) (SARS-CoV-2).
Assay [2] has as its target T1, SARS-CoV-2 Spike on wild-type …. This is another data set of the same source.
For assay [3] the target is unchanged. This is another data set of the same source.

“And” between values parts separate entries of the source, which are not always exact repeats. Identical values can stand only once. Like-named read-outs stand apart in the source and are kept apart here.

B1: VHH-72-Fc (Fc fusion)
chain: QVQLQESGGGLVQAGGSLRLSCAASGRTFSEYAMGWFRQAPGKEREFVATISWSGGSTYYTDSVKGRFTISRDNAKNTVYLQMNSLKPDDTAVYYCAAAGLGTVVSEWDYDYDYWGQGTQVTVSSGS[human IgG1 Fc omitted]
Take B1: the “Median IC50” value in assay [1] turned out to be 16 nM.

B2: 4A8 MB (other)
chain 1: EIVMTQSPLSSPVTLGQPASISCRSSQSLVHSDGNTYLSWLQQRPGQPPRLLIYKISNRFSGVPDRFSGSGAGTDFTLKISRVEAEDVGVYYCTQATQFPYTFGQGTKVDIKRTVAAPSVFIFPPSDEQLKSGTASVVCLLNNFYPREAKVQWKVDNALQSGNSQESVTEQDSKDSTYSLSSTLTLSKADYEKHKVYACEVTHQGLSSPVTKSFNRGECGGGGSGGGGSGGGGSGGGGSGGGGSGGGGSGGGGSGGGGSGGGGSGGGGSGGGGSGGGGSGGGGSGGGGSEVQLVESGAEVKKPGASVKVSCKVSGYTLTELSMHWVRQAPGKGLEWMGGFDPEDGETMYAQKFQGRVTMTEDTSTDTAYMELSSLRSEDTAVYYCATSTAVAGTPDLFDYYYGMDVWGQGTTVTVSSASTKGPSVFPLAPSSKSTSGGTAALGCLVKDYFPEPVTVSWNSGALTSGVHTFPAVLQSSGLYSLSSVVTVPSSSLGTQTYICNVNHKPSNTKVDKKVEPKSCGGGGSGGGGSGGGGSGGGGSGGGGSG[about 200 residues omitted]
chain 2: [human IgG1 Fc omitted]GGGGSGGGGSGGGGSGGGGSGGGGSGGGGSGGGGSGGGGSGGGGSGGGGSGGGGSGGGGSGGGGSGGGGS[human IgG1 Fc omitted]GGGGSGGGGSGGGGSGGGGSGGGGSGGSSQIRQNYSTDVEAAVNSLVNLYLQASYTYLSLGFYFDRDDVALEGVSHFFRELAEEKREGYERLLKMQNQRGGRALFQDIKKPAEDEW
chain 3: EIVMTQSPLSSPVTLGQPASISCRSSQSLVHSDGNTYLSWLQQRPGQPPRLLIYKISNRFSGVPDRFSGSGAGTDFTLKISRVEAEDVGVYYCTQATQFPYTFGQGTKVDIKRTVAAPSVFIFPPSDEQLKSGTASVVCLLNNFYPREAKVQWKVDNALQSGNSQESVTEQDSKDSTYSLSSTLTLSKADYEKHKVYACEVTHQGLSSPVTKSFNRGECGGGGSGGGGSGGGGSGGGGSGGGGSGGGGSGGGGSGGGGSGGGGSGGGGSGGGGSGGGGSGGGGSGGGGSEVQLVESGAEVKKPGASVKVSCKVSGYTLTELSMHWVRQAPGKGLEWMGGFDPEDGETMYAQKFQGRVTMTEDTSTDTAYMELSSLRSEDTAVYYCATSTAVAGTPDLFDYYYGMDVWGQGTTVTVSSASTKGPSVFPLAPSSKSTSGGTAALGCLVKDYFPEPVTVSWNSGALTSGVHTFPAVLQSSGLYSLSSVVTVPSSSLGTQTYICNVNHKPSNTKVDKKVEPKSCGGGGSGGGGSGGGGSGGGGSGGGGSGGGKTPDAMKAAMALEKKLNQALLDLHALGSARTDPHLCDFLETHFLDEEVKLIKKMGDHLTNLHRLGGPEAGLGEYLFERLTLRHD
notes: also called 4A8 Multabody
On to B2, for which the “Median IC50” value in assay [1] was 0.052 µg/mL and 23 pM.

B3: MB 108 (other)
chain 1: DIQMTQSPSSLSASVGDRVTITCRASQVITNNLAWYQQKPGKAPKLLIYDASTLETGVPSRFSGSGSGTDFTLTISSLQPEDFATYYCQQSYTFPYTFGQGTKVEIKRTVAAPSVFIFPPSDEQLKSGTASVVCLLNNFYPREAKVQWKVDNALQSGNSQESVTEQDSKDSTYSLSSTLTLSKADYEKHKVYACEVTHQGLSSPVTKSFNRGECGGGGSGGGGSGGGGSGGGGSGGGGSGGGGSGGGGSGGGGSGGGGSGGGGSGGGGSGGGGSGGGGSGGGGSQVQLVQSGAEVKKPGASVKVSCKASGYIFSRYAIHWVRQAPGQGLEWMGWMNPISGNTDYAPNFQGRVTMTRDTSTSTVYMELSSLRSEDTAVYYCAKDGSQLAYLVEYFQHWGQGTLVTVSSASTKGPSVFPLAPSSKSTSGGTAALGCLVKDYFPEPVTVSWNSGALTSGVHTFPAVLQSSGLYSLSSVVTVPSSSLGTQTYICNVNHKPSNTKVDKKVEPKSCGGGGSGGGGSGGGGSGGGGSGGGGSGG[about 200 residues omitted]
chain 2: [human IgG1 Fc omitted]GGGGSGGGGSGGGGSGGGGSGGGGSGGGGSGGGGSGGGGSGGGGSGGGGSGGGGSGGGGSGGGGSGGGGS[human IgG1 Fc omitted]GGGGSGGGGSGGGGSGGGGSGGGGSGGSSQIRQNYSTDVEAAVNSLVNLYLQASYTYLSLGFYFDRDDVALEGVSHFFRELAEEKREGYERLLKMQNQRGGRALFQDIKKPAEDEW
chain 3: DIQMTQSPSSLSASVGDRVTITCRASQVITNNLAWYQQKPGKAPKLLIYDASTLETGVPSRFSGSGSGTDFTLTISSLQPEDFATYYCQQSYTFPYTFGQGTKVEIKRTVAAPSVFIFPPSDEQLKSGTASVVCLLNNFYPREAKVQWKVDNALQSGNSQESVTEQDSKDSTYSLSSTLTLSKADYEKHKVYACEVTHQGLSSPVTKSFNRGECGGGGSGGGGSGGGGSGGGGSGGGGSGGGGSGGGGSGGGGSGGGGSGGGGSGGGGSGGGGSGGGGSGGGGSQVQLVQSGAEVKKPGASVKVSCKASGYIFSRYAIHWVRQAPGQGLEWMGWMNPISGNTDYAPNFQGRVTMTRDTSTSTVYMELSSLRSEDTAVYYCAKDGSQLAYLVEYFQHWGQGTLVTVSSASTKGPSVFPLAPSSKSTSGGTAALGCLVKDYFPEPVTVSWNSGALTSGVHTFPAVLQSSGLYSLSSVVTVPSSSLGTQTYICNVNHKPSNTKVDKKVEPKSCGGGGSGGGGSGGGGSGGGGSGGGGSGGGKTPDAMKAAMALEKKLNQALLDLHALGSARTDPHLCDFLETHFLDEEVKLIKKMGDHLTNLHRLGGPEAGLGEYLFERLTLRHD
In the case of B3, the “IC50 SARS-CoV2 PsV (MB)” value in assay [2] was 0.37 µg/mL. Moreover, the “Median IC50” value in assay [3] is 0.37 µg/mL and 161 pM.

B4: MB 128 (other)
chain 1: DIQMTQSPSSLSASVGDRVTITCRASQNISRYLNWYQQKPGKAPKLLIYDASNLETGVPSRFSGSGSGTDFTLTISSLQPEDFATYYCQQANGFPPTFGQGTKLEIKRTVAAPSVFIFPPSDEQLKSGTASVVCLLNNFYPREAKVQWKVDNALQSGNSQESVTEQDSKDSTYSLSSTLTLSKADYEKHKVYACEVTHQGLSSPVTKSFNRGECGGGGSGGGGSGGGGSGGGGSGGGGSGGGGSGGGGSGGGGSGGGGSGGGGSGGGGSGGGGSGGGGSGGGGSQVQLVQSGAEVKKPGASVKVSCKASGYTFTHYYMHWVRQAPGQGLEWMGIINPSSSSASYSQKFQGRVTMTRDTSTSTVYMELSSLRSEDTAVYYCARDGRYGSGSYPFDYWGQGTLVTVSSASTKGPSVFPLAPSSKSTSGGTAALGCLVKDYFPEPVTVSWNSGALTSGVHTFPAVLQSSGLYSLSSVVTVPSSSLGTQTYICNVNHKPSNTKVDKKVEPKSCGGGGSGGGGSGGGGSGGGGSGGGGSGG[about 200 residues omitted]
chain 2: [human IgG1 Fc omitted]GGGGSGGGGSGGGGSGGGGSGGGGSGGGGSGGGGSGGGGSGGGGSGGGGSGGGGSGGGGSGGGGSGGGGS[human IgG1 Fc omitted]GGGGSGGGGSGGGGSGGGGSGGGGSGGSSQIRQNYSTDVEAAVNSLVNLYLQASYTYLSLGFYFDRDDVALEGVSHFFRELAEEKREGYERLLKMQNQRGGRALFQDIKKPAEDEW
chain 3: DIQMTQSPSSLSASVGDRVTITCRASQNISRYLNWYQQKPGKAPKLLIYDASNLETGVPSRFSGSGSGTDFTLTISSLQPEDFATYYCQQANGFPPTFGQGTKLEIKRTVAAPSVFIFPPSDEQLKSGTASVVCLLNNFYPREAKVQWKVDNALQSGNSQESVTEQDSKDSTYSLSSTLTLSKADYEKHKVYACEVTHQGLSSPVTKSFNRGECGGGGSGGGGSGGGGSGGGGSGGGGSGGGGSGGGGSGGGGSGGGGSGGGGSGGGGSGGGGSGGGGSGGGGSQVQLVQSGAEVKKPGASVKVSCKASGYTFTHYYMHWVRQAPGQGLEWMGIINPSSSSASYSQKFQGRVTMTRDTSTSTVYMELSSLRSEDTAVYYCARDGRYGSGSYPFDYWGQGTLVTVSSASTKGPSVFPLAPSSKSTSGGTAALGCLVKDYFPEPVTVSWNSGALTSGVHTFPAVLQSSGLYSLSSVVTVPSSSLGTQTYICNVNHKPSNTKVDKKVEPKSCGGGGSGGGGSGGGGSGGGGSGGGGSGGGKTPDAMKAAMALEKKLNQALLDLHALGSARTDPHLCDFLETHFLDEEVKLIKKMGDHLTNLHRLGGPEAGLGEYLFERLTLRHD
With B4, in assay [2], the “IC50 SARS-CoV2 PsV (MB)” value is 3.5 µg/mL. Further, the “Median IC50” value in assay [3] is 3.5 µg/mL and 1.5 nM.
